# Measurements as given in the supplement of paper PMC10338343.
# ± gives the standard deviation. Whole data set: some 6,600 sequences, median “pre-steady-state target cleavage rate” near 0.07, cut for the highest 2% near 0.72. The entries are a selection whose mix differs from that of the whole data set.
# Tested on: MIWI (PIWIL1) piRISC loaded with Kctd7 piRNA (30 nt)
# Test: pre-steady-state target cleavage rate (min^-1); MIWI and MILI are mouse PIWI proteins and EfPiwi is from a freshwater sponge; tags in brackets are library labels; higher = faster piRNA-guided slicing of the target
# Settings: guide: Kctd7 piRNA 5'p-UGUUAAUCUCUCAGAGAAGGUGACAGUGAU; auxiliary factor: 500 nM mouse GTSF1
# Method: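 Cleave-'n-Seq: a library of target RNAs (target site embedded in constant flanks, ACAGCATTCCGCGTTAGTGATATCCG... 5' flank; DNA-blocked outside the site) at 0.1 nM was incubated with 1 nM active mouse MILI or MIWI piRISC (synthetic 5'-monophosphorylated piRNA guide) with or without 500 nM mouse GTSF1 at 33 °C for 1 min to 16 h. Uncleaved targets were sequenced and normalised to non-target controls, and the pooled three trials were fitted to a burst-and-steady-state model to give the pre-steady-state cleavage rate (min^-1; k3 is constrained to at most 1e-4). Sequence is the target site only; target names encode pairing extent (gX:gY) and contiguous / 1-mismatch / 2-mismatch / bulge geometry. Fits with R² ≤ 0 are excluded.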
row,Sequence,pre-steady-state target cleavage rate
1,UAGUGACAGUCCUUCUCUGACAGAUUUACA,< 0.0001
2,AUCACUGUCACCUUCUGUGAGAGAUUAUGA,0.0197 ± 0.0096
3,UAGACUGUCACCUUCACUGAGAGAUUAAGA,0.307 ± 0.049
4,UAGUCUGUCACCUUCUCUGAGUGAAUAACA,0.0121 ± 0.0043
5,UAGUGACUCACCUUCUCUGAGAGAUAAAGA,0.0384 ± 0.0094
6,UAGUGAGUCACGUUCUCUGAGAGUUUAACA,0.164 ± 0.024
7,AUCACUGUCACCUUCUCUGACUGAUUAACA,0.0265 ± 0.0055
8,AUCACUGUCACCUUCUCUGUGAGAUAUUGA,0.00942 ± 0.0045
9,UAGUGACAGUCCUUCUCUGAGAGGAUUAACA,0.00923 ± 0.0021
10,UUCACUGUCUCCUUCUCUGAGAGAUAAACA,0.244 ± 0.036
11,UAGUGUGUCACCAACUCUGAGAGAUUAACA,0.306 ± 0.035
12,UAGUGACACACCUUCACUGAGAGAAUAACA,0.0335 ± 0.0091
13,UAGUGACUCACCUUCUCUGAGAGAUCUAACA,0.319 ± 0.073
14,UAGUGACUGAGCUUCUCUGAGAGAUUAACA,0.0278 ± 0.005
15,UACACUGUCACCUUCUCUGUCAGAUUUUGA,0.012 ± 0.0077
16,UAGUCUGUCACCUUCUCUGACAGUUUAACA,0.0307 ± 0.005
17,UUCACUGUCACCUUCUCUGAGAAUUAACA,0.296 ± 0.084
18,UAGUGACUCACCUUCUAUGAGAGAUUAACA,0.107 ± 0.013
19,UAGUCUGUCACCUUCUCUGACUGAUUAACA,0.024 ± 0.0061
20,AUCACUGUCACCAAGUCUGAGAGAUUAAGA,0.0825 ± 0.019
21,UUCACUGUCACUCUUCUCUGAGAGAUUAACA,0.506 ± 0.026
22,UAGACUGUCACCUUCUCUGAGAGAUAUUCA,0.034 ± 0.0074
23,UAGUCUCUCACCUUCUCUGAGAGAUUUACA,0.0629 ± 0.011
24,UAGUGACACACCUUCUCUGAGAGAAUUACA,0.0648 ± 0.021

row,Sequence,pre-steady-state target cleavage rate
1,UUCACUGUAACCUUCUCUGAGAGAUUAACA,0.606 ± 0.028
2,AUCACUGUGUCCUUCUCUGAGAGAUUUUGA,0.0439 ± 0.014
3,AUCACUGUCACCUACUCUGAGAGAUUAUGA,0.0815 ± 0.019
4,UUCACUGUCACCUUCACUGAGAGUUUAACA,0.426 ± 0.072
5,UAGUGAGUCACGUUCUCUGAGAGAUUAACA,0.602 ± 0.029
6,UUCACUGUCACCUUCUCUGUGUGAUUAACA,0.0241 ± 0.01
7,UAGUGACAGUCCCUCUCUGAGAGAUUAACA,0.0306 ± 0.0097
8,UACACUGUGACGUUCUCUGAGAGAUUAACA,0.638 ± 0.035
9,UAGUCUGUCACCUUACUCUGAGAGAUUAACA,0.524 ± 0.032
10,UAGUGAGUCACCUUCUCUGAGAGAAAUUGA [g7:g24:cont:t1A],0.0251 ± 0.0092
11,UACACUGUCACCUUCUCUGUCAGAUUAACA,0.0245 ± 0.008
12,UAGUCUGUCACCUUCUCUGAGUAGAUUAACA,0.00482 ± 0.0032
13,UACACUGUGACCUUCUCUCAGAGAUUAACA,0.0687 ± 0.012
14,UAGUGACAGUGGAAGAGACAGUGAUUUACA,< 0.0001
15,UAGACUGACACCUUCUCUGAGAGAAUAACA,0.306 ± 0.064
16,UAGACUGUCACCUUCACUGAGUGAUUAACA,0.0205 ± 0.0036
17,UUCACUCUCACCUUCUCUGAGAGAUUAAGA,0.0591 ± 0.019
18,UAGUGUGUCACCUUUCUGAGAGAUUAACA,0.326 ± 0.028
19,AUCACUGUGACCUUCUCUGAGAGUUUAACA,0.46 ± 0.072
20,UUCAGAGUCACCUUCUCUGAGAGAUUAACA,0.594 ± 0.045
21,UUCACUGUCACCUUCUCUGAGAGAUUAAUA,0.308 ± 0.036
22,UAGUGACACACGUUCUCUCAGAGAUUAACA,0.0098 ± 0.0032
23,UAGACUGUCACCUUCUCAGAGAGAUAUUGA,0.0061 ± 0.0033
24,UAGUGACAGAGCUUCUCUGAGAGAUUAACA,0.0181 ± 0.0033

row,Sequence,pre-steady-state target cleavage rate
1,UAGUCUGUGACCUUCUCUGAGAGAUUAACA,0.599 ± 0.031
2,UAGUGACUCACCAUCUCUGACAGAUUAACA,0.032 ± 0.0056
3,UUCACUGUCACCUUCUCUGAGAGAUUACCA,0.332 ± 0.054
4,UACACUGUCACCUUCUUCUGAGAGAUUAACA,0.227 ± 0.07
5,UUCAGUGUCACCUUCUCUGAGAGAUUUACA,0.223 ± 0.036
6,UAGUGACACACCUUCUCUGAGAGAUAUAGA,0.00835 ± 0.0046
7,UAGUCUGUCACCUUCGCUGAGAGAUUAACA,0.416 ± 0.035
8,UAGUGACACACCUUCACUGACAGAUUAACA,0.107 ± 0.019
9,UUCACUGUCACCUUCUCAGAGAGAUUUACA,0.222 ± 0.036
10,UAGUGUGUGUCCUUCUCUGAGAGAUUAUGA,0.00712 ± 0.0033
11,UAGUGAGUCACCUUCUCUGAGACAUUAUCA,0.0168 ± 0.0064
12,AUCACUGUCACGAUCUCUGAGAGAUUAUGA,0.0423 ± 0.014
13,UAGUGACAGACCUUCUCUGAGAGUAAAACA,0.00953 ± 0.0037
14,UAGUGACAGACCUUCUCUUAGAGAUUAACA,0.0217 ± 0.0053
15,UAGUCUGUCACCUUUCUGAGAGAUUAACA,0.354 ± 0.018
16,UAGUGAGUCUCCUUCUCUGAGAGAUUAUCA,0.064 ± 0.014
17,UAGUGUGUCACCUUCUCUGAGGAUUAACA,0.0111 ± 0.0062
18,UAGUGACUCACCUUCUCUGACAGAUUAACA,0.393 ± 0.048
19,UAGUGAGUGACCUUCUCUGACAGAUUAACA,0.123 ± 0.016
20,UAGUGAGUACCUUCUCUGAGAGAUUAACA,0.406 ± 0.024
21,UACACUGUCACCUUCUCUGAGAGAUAUAACA,0.322 ± 0.042
22,AUCAGUGACACCUUCUCUGAGAGAUUAACA,0.569 ± 0.024
23,UAGACUGACACCUUCUCUGAGAGAUUAUCA,0.278 ± 0.042
24,UUCACUGUCACCUUCUCUGACAGAUUAUGA,0.00929 ± 0.0039
